Results: the supplement of paper PMC11876631
Where a chain is given by its changes, count along the chain named. Names may count otherwise. ± gives the standard deviation of the averaged measurements. Laboratory Escherichia coli strains with one amino-acid change in an essential protein, pooled on minimal glucose agar with carbenicillin or gentamicin at twice the control MIC (plus kanamycin and chloramphenicol for the plasmids), 48 h. Fold change of barcode share against drug-free plates; higher = less susceptible. Active = above 20 in both replicates (the paper's putatively resistant). '<' = one read or none on drug, '>' = one read or none on a drug-free plate. Shares are relative, so most strains fall below 1 when a few take over. Listed are strains with at least 15 reads on both drug-free plates, and hits; most hits rest on fewer reference reads. Replicate rank correlation about 0.5. Edits are read from barcodes.

B1: metE I662A (protein)
chain: MTILNHTLGFPRVGLRRELKKAQESYWAGNSTREELLAVGRELRARHWDQQKQAGIDLLPVGDFAWYDHVLTTSLLLGNVPARHQNKDGSVDIDTLFRIGRGRAPTGEPAAAAEMTKWFNTNYHYMVPEFVKGQQFKLTWTQLLDEVDEALALGHKVKPVLLGPVTWLWLGKVKGEQFDRLSLLNDILPVYQQVLAELAKRGIEWVQIDEPALVLELPQAWLDAYKPAYDALQGQVKLLLTTYFEGVTPNLDTITALPVQGLHVDLVHGKDDVAELHKRLPSDWLLSAGLINGRNVWRADLTEKYAQIKDIVGKRDLWVASSCSLLHSPIDLSVETRLDAEVKSWFAFALQKCHELALLRDALNSGDTAALAEWSAPIQARRHSTRVHNPAVEKRLAAITAQDSQRANVYEVRAEAQRARFKLPAWPTTTIGSFPQTTEIRTLRLDFKKGNLDANNYRTGIAEHIKQAIVEQERLGLDVLVHGEAERNDMVEYFGEHLDGFVFTQNGWVQSYGSRCVKPPIVIGDISRPAPITVEWAKYAQSLTDKPVKGMLTGPVTILCWSFPREDVSRETIAKQIALALRDEVADLEAAGIGIIQIDEPALREGLPLRRSDWDAYLQWGVEAFRINAAVAKDDTQIHTHMCYCEFNDIMDSIAALDADVATIETSRSDMELLESFEEFDYPNEIGPGVYDIHSPNVPSVEWIEALLKKAAKRIPAERLWVNPDCGLKTRGWPETRAALANMVQAAQNLRRG
B2: metE L239A (protein)
chain: B1 chain with L239A, A662I
B3: metE L239D (protein)
chain: B1 chain with L239D, A662I
B4: metE L239Q (protein)
chain: B1 chain with L239Q, A662I
B5: metE L239W (protein)
chain: B1 chain with L239W, A662I
B6: metE L239P (protein)
chain: B1 chain with L239P, A662I
B7: metE F348W (protein)
chain: B1 chain with F348W, A662I

Target: Escherichia coli (laboratory strain)
Assay: barcode share on antibiotic plates over drug-free plates; higher = less susceptible
Protocol: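 A pool of E. coli strains, each edited to carry one amino-acid change in an essential protein, was grown for 48 h on minimal glucose agar with or without antibiotic; strain barcodes were sequenced; mean of two replicates.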

[1] = antibiotic: carbenicillin, 2× MIC (3.1 µg/mL)
[2] = antibiotic: gentamicin, 2× MIC (MIC 0.45 µg/mL)

| Protein | fold change of barcode share [1] | fold change of barcode share [2] |
| --- | --- | --- |
| B1 | 0.666 ± 0.094 |  |
| B2 | 0.399 ± 0.26 | 0.0161 ± 0.013 |
| B3 | 0.679 ± 0.17 |  |
| B4 | 0.968 ± 0.77 | < 0.00781 |
| B5 | 0.542 ± 0.38 | 0.0142 ± 0.011 |
| B6 | 0.232 ± 0.11 | 0.0198 ± 0.013 |
| B7 | 0.308 ± 0.21 | < 0.0131 |
